# Reference: PubChem BioAssay AID463173 (ICCB-Longwood Screening Facility, Harvard Medical School, 2010)
# Hit rate of the full screen: of about 52,000 compounds, about 4,300 (8.3%) were called active. No stated cut-off is given here; in the data, active means survival mostly below about 52% (no sharp cut-off); inactive means mostly above about 56%. This is one part of the list.
# Test system: DeltatarO mutant
# Assay: S. aureus survival, RN4220 and DeltatarO strains – OD600, teichoic acid synthesis inhibitors, primary screen (AID 463173)
# Settings: S. aureus RN4220 wild type/DeltatarO growth, OD600, 18 h, active compounds read low, screened at 18.75 µg/mL (by protocol)
row,SMILES,survival
1,CN(C)c1ccc(C(CNC(=O)c2ccccc2)N2CCc3ccccc32)cc1 (centres undefined),inactive: 115%
2,CCOC(=O)c1cnc2[nH]c3ccccc3n2c1=O,inactive: 99%
3,COc1ccc(-c2ccc(NS(=O)(=O)c3ccc(OC)c(OC)c3)cc2)nn1,inactive: 83%
4,CCOc1sc2nc(C)n(CC(=O)Nc3cccc(C)c3)c(=O)c2c1C,inactive: 122%
5,Cc1nn(-c2ccccc2)c2sc(C(=O)N/N=C/c3ccccc3)cc12,inactive: 110%
6,COC(=O)c1ccccc1NC(=O)c1c(C)oc2ncn(C)c(=O)c12,inactive: 104%
7,COc1ccc(OCc2nc3ccccc3n2Cc2ccccc2Cl)cc1,active: 39%
8,Cc1ccccc1-c1nnc(NC(=O)CC(C)C)s1,inactive: 91%
9,CCC(=O)N1CCc2cc(Br)cc(S(=O)(=O)N3CCCC(C(=O)Nc4ccc(C(C)C)cc4)C3)c21 (centres undefined),inactive: 108%
10,CCN1CCc2nc3sc(C(=O)Nc4cccc(Cl)c4C)c(N)c3cc2C1,inactive: 125%
11,O=C(Nc1cccc(-c2nnn(CC(=O)N3CCc4ccccc4C3)n2)c1)C1CCC1,inactive: 78%
12,O=c1cc(CSc2ccc(Cl)cc2)[nH]c(=S)[nH]1,inactive: 78%
13,CCc1cnc2c(c1SCC(=O)c1ccccc1)c(=O)n(C)c(=O)n2C,inactive: 73%
14,O=S(=O)(c1ccc(Br)cc1)c1nnn2c1nc(N1CCOCC1)c1sccc12,inactive: 73%
15,C/C(=N/OC(=O)c1ccccc1)c1cccs1,inactive: 78%
16,CCN1CCN(CCCNC(=O)c2cnn(-c3ccc(C)cc3C)c2C2CCN(C(=O)OC(C)(C)C)CC2)CC1,inactive: 144%
17,NC(=O)c1nc(-c2ccc(F)c(F)c2)nc2c1[nH]c(=O)n2-c1cccc(Cl)c1,inactive: 86%
18,O=C(COC(=O)c1cc(-c2ccccc2)nc2ccccc12)c1ccc(Br)cc1,inactive: 53%
19,COc1ccc(N2CCN(CC(=O)c3ccc(OC)c(OC)c3)CC2)cc1,inactive: 68%
20,Cc1ccc(CNS(=O)(=O)c2cc3[nH]c(=O)c(=O)[nH]c3cc2C)cc1,active: 47%
21,Cc1cn2c(=O)cc(COc3ccccc3NC(=O)c3ccco3)nc2s1,inactive: 87%
22,Cc1c(C(=O)NCc2cccc(Cl)c2)sc2nc3n(c(=O)c12)CCC3,inactive: 112%
23,COc1cc(N(C(=O)c2ccco2)C(C(=O)NC2CCCC2)c2ccc(C)cc2)ccc1-n1cnnn1 (centres undefined),inactive: 95%

row,SMILES,survival
1,Cc1ccc(-c2nc(C)c(CCNC(=O)C(=O)Nc3ccc4c(c3)OCCO4)s2)cc1,inactive: 83%
2,CC1=NCC(=O)Nc2cc3c(cc21)OCCO3,inactive: 105%
3,CCCOc1ccc(C(=O)Nc2cccc(-c3nc4ccccc4[nH]3)c2)cc1,active: 28%
4,CCOc1cc(CN2CCN(CC3CC4C=CC3C4)CC2)ccc1OC (centres undefined),inactive: 98%
5,CN1CCN(c2ncnc3c2cnn3-c2ccccc2)CC1,inactive: 83%
6,Cc1ccc(NC(=O)Cn2c(=O)n(Cc3ccccc3)c(=O)c3c(C)c(C)sc32)c(C)c1,inactive: 95%
7,CCC(Cc1ccccc1)NC(=O)c1ccc2nc(N3CCC(C)CC3)sc2c1 (centres undefined),inactive: 68%
8,CCc1ccccc1NC(=O)C1=CC(c2ccc(OC)c(OC)c2)=NS(=O)(=O)N1C,inactive: 79%
9,Cc1cccc(C)c1OCC(=O)NCC1(N2CCOCC2)CCCCC1,inactive: 66%
10,CC1CCCN(c2csc3ccc(F)cc3c2=O)C1 (centres undefined),inactive: 67%
11,COc1ccc(OC(=O)c2nc(SCc3ccc(C)cc3)ncc2Cl)cc1,inactive: 57%
12,Cc1ccc(C(C)C)c(OCC(=O)Nc2c(C(=O)c3ccccc3)oc3ccccc23)c1,inactive: 78%
13,COc1ccc(-n2nc3ccc(NC(=O)c4cc5ccccc5o4)cc3n2)cc1Cl,inactive: 159%
14,CCOc1ccc(CNC(=O)C2CCCN(c3nc4c(C)cc(C)cc4s3)C2)cc1 (centres undefined),inactive: 88%
15,CCC(CC)C(=O)Nc1cccc(-c2nc3cccnc3s2)c1C,inactive: 114%
16,CCc1ccc(-c2nn(CC(=O)NC3CCCC3)c3c2cnc2ccc(C)cc23)cc1,active: 37%
17,CC1(C)O[C@H]2[C@@H](O1)[C@@H](C(=O)Nc1ccccc1O)O[C@@H]1OC(C)(C)O[C@@H]12,inactive: 130%
18,O=C(Nc1ccc(N2CCC(N3CCCCC3)CC2)c(C(=O)O)c1)c1ccc(Br)cc1,inactive: 101%
19,CCOc1cc(C2C(C(=O)OC)=C(C)NC3=C2C(=O)c2ccccc23)ccc1O (centres undefined),active: 31%
20,COc1ccc(CNC(=O)CCn2nc(C)c3c(C)n(-c4ccccc4)nc3c2=O)cc1OC,active: 0%
21,CCOC(=O)CSc1nnc(CNc2ccc(F)cc2)o1,inactive: 73%
22,Cc1ccc(NC(=O)CCCn2nc(C)c3c(C)n(-c4ccccc4)nc3c2=O)cc1Cl,inactive: 80%
23,O=C(CN1CCN(c2ccc(Cl)cc2)CC1)Nc1ccc(F)cc1F,inactive: 85%

row,SMILES,survival
1,Cc1ccc(NC(=O)c2sc3ccccc3c2Cl)cc1,inactive: 66%
2,Cc1ccc(CN2C(=O)c3ccccc3C2C(=O)NC2CCCCCC2)cc1 (centres undefined),inactive: 48%
3,Cc1cc(Nc2cccc(C(F)(F)F)c2)nc2ccc(NC(=O)c3ccc(N(C)C)cc3)cc12,inactive: 55%
4,CCc1ccc(-n2nc(C)c3c(C(=O)Nc4cccc(C(F)(F)F)c4)cc(C)nc32)cc1,active: 20%
5,O=C(Nc1cccc(C(=O)N2CCCCC2)c1)c1nsc2ccccc12,inactive: 65%
6,CCOc1ccccc1NC(=O)c1c(C)cc(C)nc1SCC(=O)c1cccc(OC)c1,active: 40%
7,Cc1ccc(NC(=O)c2c(Nc3ccccc3C)sc(C(=O)c3ccccc3)c2N)cc1,inactive: 89%
8,CC(=O)N1CCCc2cc(S(=O)(=O)N(C)CC(=O)Nc3ccc(F)cc3Cl)ccc21,inactive: 75%
9,CCc1nn(CC(=O)NC(C)C)c(=O)c2cc3cc(F)ccc3n12,inactive: 84%
10,CCOC(=O)CC1CN(C)CCN1C (centres undefined),inactive: 80%
11,CCOc1ccc(N(CC(=O)Nc2ccc(F)cc2F)S(=O)(=O)c2c(C)[nH]c(=O)[nH]c2=O)cc1,inactive: 72%
12,CN1C(=O)c2ccccc2Sc2ccc(NC(=O)Nc3ccccc3F)cc21,inactive: 115%
13,COc1ccc(CNC(=O)C(=O)NCC(c2cccs2)S(=O)(=O)c2ccc(F)cc2)cc1 (centres undefined),inactive: 85%
14,COc1ccc(CN(CCC(c2ccc3c(c2)OCO3)c2ccccc2OC)C(C)=O)cc1 (centres undefined),active: 19%
15,CCOCCCn1c(=N)c(S(=O)(=O)c2ccc(C)cc2)cc2c(=O)n3cccc(C)c3nc21,inactive: 61%
16,Cc1ccc(C)c(N2CCN(c3nc4ccccc4c4nc(CCn5nc(C)cc5C)nn34)CC2)c1,inactive: 84%
17,O=C(CSc1nc(-c2ccc(Cl)cc2)nc2c1Cc1ccccc1O2)N1CCCCC1,inactive: 96%
18,Cc1ccc(N2C(=O)CS(=O)(=O)C23C(=O)N(Cc2cccc(F)c2)c2ccccc23)cc1Cl (centres undefined),inactive: 54%
19,COc1ccc(Cl)cc1NC(=O)c1cc2nc(-c3ccc4c(c3)OCO4)cc(C(F)(F)F)n2n1,inactive: 86%
20,O=C(CN1C(=O)CSC1=O)c1ccccc1,inactive: 88%
21,COc1cccc(OC(=O)CSc2nnc(-c3ccccc3OC)o2)c1,inactive: 62%
22,O=c1cc(CN2CCN(S(=O)(=O)c3ccc(Cl)cc3)CC2)nc2sc(-c3ccccc3F)nn12,inactive: 104%
23,O=S(=O)(NCCc1ccccc1)c1ccc(N2CCCCS2(=O)=O)cc1,active: 52%

row,SMILES,survival
1,CCOc1ccc(NS(=O)(=O)c2ccc3[nH]cc(C(=O)NCc4ccco4)c(=O)c3c2)cc1,inactive: 68%
2,COc1ccc(NC(=O)CCCc2nc(-c3ccco3)no2)c(OC)c1,inactive: 107%
3,COc1ccc2nc3sc(C(=O)Nc4ccccc4F)cc3cc2c1,inactive: 106%
4,CCN(CC)S(=O)(=O)c1ccc(NC(=O)[C@H](CSCc2ccccc2)N2Cc3ccccc3C2=O)cc1,inactive: 103%
5,COCCN(C(=O)C1CC1)c1nnc(-c2cc(OC)c(OC)c(OC)c2)s1,inactive: 91%
6,COC(=O)Cn1c(=O)c2c(nc3n2CCN3c2cccc(C)c2)n(C)c1=O,inactive: 73%
7,CCCCc1ccc(NC(=O)c2cc3c(=O)n4ccccc4nc3n2C)cc1,inactive: 65%
8,CCOC(=O)C1CCN(C(c2ccccc2)c2c(O)cc(C)n(Cc3ccco3)c2=O)CC1 (centres undefined),inactive: 67%
9,COc1ccc(OCC(=O)Nc2nnc(S(=O)(=O)N3CCCCCC3)s2)cc1,inactive: 76%
10,CCOc1ccc(NC(=O)Cn2c(Nc3ccc(OCC)cc3)nc3c2c(=O)[nH]c(=O)n3C)cc1,inactive: 78%
11,COc1ccc(NC(=O)c2ccccc2NC(=O)c2ccco2)cc1,inactive: 74%
12,O=C(c1ccco1)N(Cc1cccnc1)c1nc2ccc(F)cc2s1,inactive: 115%
13,CCc1ccc(C2C(C(=O)Nc3ccccc3)=C(C)Nc3c(C(=O)Nc4ccc(C)cc4)cnn32)cc1 (centres undefined),active: 17%
14,COc1cc(OC)cc(-c2nc3n(n2)C(c2ccccc2F)C(C(=O)Nc2cccnc2)=C(C)N3)c1 (centres undefined),active: 45%
15,Cc1ccc(S(=O)(=O)NCC(c2ccc(N(C)C)cc2)N2CCCC2)cc1 (centres undefined),inactive: 98%
16,CCc1ccc(S(=O)(=O)c2cn(C)c3cc(N4CCCCC4C)c(F)cc3c2=O)cc1 (centres undefined),inactive: 99%
17,Cc1cc(C)cc(NC(=O)C2CCCN(c3nnc(C)c4c(C)n(-c5ccccc5)nc34)C2)c1 (centres undefined),inactive: 96%
18,CCOC(=O)Cn1c(=O)oc2cc(S(=O)(=O)N3CCN(c4ccc(Cl)cc4)CC3)ccc21,inactive: 59%
19,CCC(C)NC(=O)c1cc2c(Cl)nc3ccc(C)cc3c2s1 (centres undefined),inactive: 65%
20,CC(C)CNC(=O)c1cccc(Cl)c1,inactive: 82%
